{"source": "the BET-seq Pho4 binding data (Le et al. 2018)", "note": "The other results are listed elsewhere or left out. These are noisy estimates, calculated here from bound and input reads."}
{"molecular_target": "T1, Pho4 (S. cerevisiae) (UniProt P07270)", "T1 sequence": "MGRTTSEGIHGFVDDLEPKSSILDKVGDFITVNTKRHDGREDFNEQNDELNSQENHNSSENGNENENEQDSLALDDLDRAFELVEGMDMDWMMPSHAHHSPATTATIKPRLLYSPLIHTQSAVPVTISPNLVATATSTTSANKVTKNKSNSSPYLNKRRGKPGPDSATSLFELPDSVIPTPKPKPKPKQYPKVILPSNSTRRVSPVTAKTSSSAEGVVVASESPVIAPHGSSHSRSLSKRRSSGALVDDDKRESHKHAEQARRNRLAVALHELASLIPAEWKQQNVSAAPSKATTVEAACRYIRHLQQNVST", "assay": "relative binding free energy (BET-seq); higher = weaker binding", "conditions": "reference: library average", "units": {"relative binding free energy": "kcal/mol"}}
{"sequence": "GGGGTCACGTGAGTGA", "relative binding free energy": 0.35}
{"sequence": "TGATTCACGTGATGCA", "relative binding free energy": 0.28}
{"sequence": "GTATACACGTGAGCGT", "relative binding free energy": 0.08}
{"sequence": "TCAGTCACGTGGTGTG", "relative binding free energy": -0.16}
{"sequence": "TATTGCACGTGGGCTT", "relative binding free energy": -0.18}
{"sequence": "ATGGACACGTGGTTAA", "relative binding free energy": -0.04}
{"sequence": "TGTATCACGTGTGGTG", "relative binding free energy": 0.25}
{"sequence": "TGTTTCACGTGCAGCG", "relative binding free energy": 0.23}
{"sequence": "ATAGGCACGTGGTAGA", "relative binding free energy": -0.31}
{"sequence": "GGTTGCACGTGCGTGA", "relative binding free energy": 0.06}
{"sequence": "TTTTACACGTGCTTCA", "relative binding free energy": 0.18}
{"sequence": "CGATGCACGTGGTAGT", "relative binding free energy": -0.1}
{"sequence": "AATGGCACGTGCAAGG", "relative binding free energy": -0.01}
{"sequence": "TGAATCACGTGCATGT", "relative binding free energy": 0.06}
{"sequence": "AGTGCCACGTGTTATG", "relative binding free energy": -0.24}
{"sequence": "TGTGGCACGTGGTTTA", "relative binding free energy": -0.12}
{"sequence": "TAGTACACGTGTGGCG", "relative binding free energy": 0.06}
{"sequence": "AGTTGCACGTGAGAGG", "relative binding free energy": 0.21}
{"sequence": "ATGTGCACGTGTGAGT", "relative binding free energy": 0.02}
{"sequence": "CGTTCCACGTGAGGAT", "relative binding free energy": 0.43}
{"sequence": "GGATACACGTGGTAGG", "relative binding free energy": 0.12}
{"sequence": "CAGTTCACGTGTTCGT", "relative binding free energy": 0.32}
{"sequence": "CTCGTCACGTGTTTAT", "relative binding free energy": 0.2}
{"sequence": "GTATTCACGTGGGTGC", "relative binding free energy": 0.16}
{"sequence": "TGGCACACGTGATGGA", "relative binding free energy": 0.42}
{"sequence": "TTTTGCACGTGCTTGT", "relative binding free energy": 0.1}
{"sequence": "TATAGCACGTGTTGGA", "relative binding free energy": -0.03}
{"sequence": "TTAGGCACGTGCTGTG", "relative binding free energy": -0.16}
{"sequence": "AGTGGCACGTGTTTGT", "relative binding free energy": -0.04}
{"sequence": "GAGATCACGTGTTAGG", "relative binding free energy": 0.28}
{"sequence": "CGGGTCACGTGTGCAG", "relative binding free energy": 0.1}
{"sequence": "CGGAGCACGTGGGGCC", "relative binding free energy": -0.09}
{"sequence": "AGGGTCACGTGAATCG", "relative binding free energy": 0.24}
{"sequence": "TAGAGCACGTGGGTCA", "relative binding free energy": -0.26}
{"sequence": "TGAGTCACGTGAATTG", "relative binding free energy": 0.29}
{"sequence": "GTACGCACGTGCTGTG", "relative binding free energy": 0.01}
{"sequence": "AGGTTCACGTGAAAGA", "relative binding free energy": 0.53}
{"sequence": "AGTGTCACGTGCCTTG", "relative binding free energy": -0.05}
{"sequence": "GGGGTCACGTGTTCCT", "relative binding free energy": 0.23}
{"sequence": "AGGGGCACGTGGTACA", "relative binding free energy": -0.16}
{"sequence": "GAAAACACGTGTGTAT", "relative binding free energy": 0.18}
{"sequence": "AGGGCCACGTGGGAGC", "relative binding free energy": -0.18}
{"sequence": "TATTTCACGTGAGATG", "relative binding free energy": 0.4}
{"sequence": "TGGGACACGTGGGGAG", "relative binding free energy": -0.03}
{"sequence": "GTCGACACGTGTGGAG", "relative binding free energy": 0.2}
{"sequence": "GAGTTCACGTGAGATA", "relative binding free energy": 0.51}
{"sequence": "AAATGCACGTGTCGGT", "relative binding free energy": -0.01}
{"sequence": "TGTCTCACGTGATATG", "relative binding free energy": 0.18}
{"sequence": "TCGGTCACGTGGTTCG", "relative binding free energy": 0.14}
{"sequence": "AAGGTCACGTGGGGCG", "relative binding free energy": -0.07}
{"sequence": "TAACTCACGTGAAGGG", "relative binding free energy": 0.32}
{"sequence": "TGTCACACGTGTCGGG", "relative binding free energy": 0.2}
{"sequence": "GTGTTCACGTGCGGCA", "relative binding free energy": 0.24}
{"sequence": "TATATCACGTGTTAGA", "relative binding free energy": 0.18}
{"sequence": "TCAGGCACGTGCTGTG", "relative binding free energy": -0.11}
{"sequence": "TTCGGCACGTGATGAT", "relative binding free energy": -0.09}
{"sequence": "TACAGCACGTGGTTTG", "relative binding free energy": -0.07}
{"sequence": "TGCTGCACGTGTGAGA", "relative binding free energy": 0.11}
{"sequence": "AAAGGCACGTGTTGTG", "relative binding free energy": -0.21}
{"sequence": "ATTGTCACGTGTATTA", "relative binding free energy": 0.12}
{"sequence": "AGAGTCACGTGATGAT", "relative binding free energy": 0.35}
{"sequence": "GTGTACACGTGTACTT", "relative binding free energy": 0.16}
{"sequence": "TGTTGCACGTGCGGTC", "relative binding free energy": 0.06}
{"sequence": "TTGGGCACGTGAGAGG", "relative binding free energy": 0.11}
{"sequence": "CGGATCACGTGATGGT", "relative binding free energy": 0.16}
{"sequence": "TAGAGCACGTGAGTGG", "relative binding free energy": 0.28}
{"sequence": "CGATACACGTGTAGGG", "relative binding free energy": 0.11}
{"sequence": "TTGGGCACGTGTCTTC", "relative binding free energy": -0.04}
{"sequence": "AATATCACGTGTGGAG", "relative binding free energy": 0.24}
{"sequence": "GGCGTCACGTGTTTTG", "relative binding free energy": 0.11}
{"sequence": "AATGGCACGTGGATCT", "relative binding free energy": -0.03}
{"sequence": "TAATACACGTGCGGTT", "relative binding free energy": 0}
{"sequence": "ATATGCACGTGGACGT", "relative binding free energy": -0.08}
{"sequence": "TGGCACACGTGTGCGT", "relative binding free energy": -0.07}
{"sequence": "TCGATCACGTGCGGGT", "relative binding free energy": 0.14}
{"sequence": "GTTACCACGTGGCGGT", "relative binding free energy": -0.08}
{"sequence": "TGTATCACGTGAGAAG", "relative binding free energy": 0.31}
{"sequence": "GTGTACACGTGGGTCA", "relative binding free energy": -0.02}
{"sequence": "GGGGGCACGTGGTGGA", "relative binding free energy": -0.07}
{"sequence": "AGGCGCACGTGGGGAG", "relative binding free energy": -0.25}
{"sequence": "GGGTACACGTGTTATA", "relative binding free energy": 0}
{"sequence": "GATCGCACGTGAGTGG", "relative binding free energy": 0.24}
{"sequence": "TTGTACACGTGGAGAT", "relative binding free energy": 0.05}
{"sequence": "GGATTCACGTGTGTTA", "relative binding free energy": 0.41}
{"sequence": "TACGTCACGTGTTGGT", "relative binding free energy": 0.15}
{"sequence": "AAATTCACGTGATAGG", "relative binding free energy": 0.17}
{"sequence": "CTGTGCACGTGACGGG", "relative binding free energy": 0.14}
{"sequence": "AGACTCACGTGGGTTG", "relative binding free energy": 0.02}
{"sequence": "TGGGGCACGTGCGCGC", "relative binding free energy": -0.32}
{"sequence": "ACTTTCACGTGATTGG", "relative binding free energy": 0.21}
{"sequence": "ATTCGCACGTGTCTGT", "relative binding free energy": -0.07}
{"sequence": "GTGTACACGTGGCGAG", "relative binding free energy": -0.11}
{"sequence": "GGCGTCACGTGTAATA", "relative binding free energy": 0.34}
{"sequence": "TCAGACACGTGATTGG", "relative binding free energy": 0.15}
{"sequence": "GTGTGCACGTGGGTTA", "relative binding free energy": -0.11}
{"sequence": "ATACACACGTGGATGT", "relative binding free energy": 0.15}
{"sequence": "TTCAACACGTGTATTT", "relative binding free energy": 0.03}
{"sequence": "GTTATCACGTGATCGG", "relative binding free energy": 0.34}
{"sequence": "TTTATCACGTGTGCGC", "relative binding free energy": 0.28}
{"sequence": "AAAGGCACGTGTATTT", "relative binding free energy": -0.02}
{"sequence": "TTTAGCACGTGAATTA", "relative binding free energy": 0.3}
{"sequence": "GTGGGCACGTGTGCGC", "relative binding free energy": -0.03}
{"sequence": "TGGGTCACGTGACGGG", "relative binding free energy": 0.15}
{"sequence": "GATTGCACGTGAATAG", "relative binding free energy": 0.34}
{"sequence": "AGTGCCACGTGCTGGA", "relative binding free energy": -0.12}
{"sequence": "GTTGGCACGTGGAAAG", "relative binding free energy": 0.02}
{"sequence": "ATGTGCACGTGAATGA", "relative binding free energy": 0.14}
{"sequence": "CGGGTCACGTGCTAGT", "relative binding free energy": 0.08}
{"sequence": "GTGTACACGTGAAATG", "relative binding free energy": 0.31}
{"sequence": "TTCTGCACGTGGTGGA", "relative binding free energy": -0.08}
{"sequence": "GTGATCACGTGGTCGG", "relative binding free energy": 0.11}
{"sequence": "TGTTCCACGTGGTGCG", "relative binding free energy": -0.15}
{"sequence": "CGTCACACGTGGTGTT", "relative binding free energy": -0.02}
{"sequence": "GGTGACACGTGTAGAG", "relative binding free energy": -0.01}
{"sequence": "TTGGACACGTGCGTTG", "relative binding free energy": -0.09}
{"sequence": "AGGTCCACGTGGGTGT", "relative binding free energy": -0.12}
{"sequence": "GTTTCCACGTGTTTTT", "relative binding free energy": 0.22}
{"sequence": "GGGCGCACGTGTGGCT", "relative binding free energy": 0.02}
{"sequence": "TGTTGCACGTGGCGTG", "relative binding free energy": -0.02}
{"sequence": "TGTGACACGTGGAAAT", "relative binding free energy": 0.1}
{"sequence": "TGTCACACGTGGTGAT", "relative binding free energy": -0.01}
{"sequence": "TTGTACACGTGGGAAA", "relative binding free energy": 0.01}
{"sequence": "AGCTTCACGTGAGAGG", "relative binding free energy": 0.4}
{"sequence": "GTACGCACGTGGTGGT", "relative binding free energy": -0.1}
{"sequence": "CGCGGCACGTGATATG", "relative binding free energy": 0.13}
{"sequence": "TGGCTCACGTGTGAGG", "relative binding free energy": 0.41}
{"sequence": "AAAATCACGTGCGGTG", "relative binding free energy": 0.23}
{"sequence": "TGGGTCACGTGCTGAG", "relative binding free energy": -0.08}
{"sequence": "GTGGCCACGTGGGATA", "relative binding free energy": -0.21}
{"sequence": "TCATTCACGTGATTGG", "relative binding free energy": 0.43}
{"sequence": "TGAAGCACGTGGTTAG", "relative binding free energy": -0.12}
{"sequence": "AGGCTCACGTGATGTT", "relative binding free energy": 0.37}
{"sequence": "CAATGCACGTGTGGGC", "relative binding free energy": 0.01}
{"sequence": "CGTTTCACGTGGTTAT", "relative binding free energy": 0.2}
{"sequence": "ACTGTCACGTGTATTT", "relative binding free energy": 0}
{"sequence": "ATTTTCACGTGGGGAT", "relative binding free energy": 0.15}
{"sequence": "ATATTCACGTGGCTAG", "relative binding free energy": 0.32}
{"sequence": "AACTACACGTGTTGGT", "relative binding free energy": 0.13}
{"sequence": "TTTCGCACGTGGAGAT", "relative binding free energy": -0.02}
{"sequence": "GGAATCACGTGCGAGG", "relative binding free energy": 0.09}
{"sequence": "GTGGGCACGTGATAGG", "relative binding free energy": 0.03}
{"sequence": "TGATGCACGTGTATCG", "relative binding free energy": 0.05}
{"sequence": "ATAGGCACGTGACGAT", "relative binding free energy": 0.07}
{"sequence": "GGGTTCACGTGGAACT", "relative binding free energy": 0.39}
{"sequence": "TTCGTCACGTGTGTAT", "relative binding free energy": 0.22}
{"sequence": "ATATGCACGTGGTGGC", "relative binding free energy": -0.07}
